Reference: the RNAGym collection of RNA variant scans (doi:10.7554/elife.90254)
Read counts are not given, so values of variants with three or more changes are uncertain.

B1: LINE1-mini (parent)
chain: GGCAGAGCUCAACACAGCGUGGCAAAGUGGCUGUGGCUAGACUGCC

Variants of: B1
Experiment: self-cleavage, relative activity (ratio to wild type); higher = more cleavage; in vitro, sequencing; the parent is a self-cleaving ribozyme

Row | Variant | self-cleavage
1 | GACAGAACUCAACACAGCGUGGCAAAGUGGUUGUGGCUAGACUGCC [G2A G7A C31U] | 1.17
2 | GACAUAGCUCUACACAGCGUCGCAAAGUGGCUGUGGCUAUGCUGCC [G2A G5U A11U G21C G40U A41G] | 0
3 | GACAUAGCUCAACACAGCCUGGCAAAGUGGCUGUGGCUAGCCUGCC [G2A G5U G19C A41C] | 0.06
4 | GACACAGCUCAACAAAGGGUGGCAAAGUGGCCGUGGCUAUACUGCC [G2A G5C C15A C18G U32C G40U] | 0.02
5 | GACAGAACUCAACACAGCGUAGCAAAGUGGCUGUGGCUAGUCUGCC [G2A G7A G21A A41U] | 0.94
6 | GACAUAGCUCAACACAGCGUGGCAAAGUGCCUGUGGCUAGACUGCC [G2A G5U G30C] | 0.31
7 | GACAGAAAACAACACAGCGUGGUAAAAUGGCUGUGGCUAGACUGCC [G2A G7A C8A U9A C23U G27A] | 0.18
8 | GACAUAGCUCAACACAGCGUGGCAAAGUUGCUGUGGCUAGCCUGCC [G2A G5U G29U A41C] | 0.08
9 | GACAUGGCUCAACACAGCGUGGCAAAGUGGCUGUGGCUAGACUGCC [G2A G5U A6G] | 0.35
10 | GACAGACCUCAACACAGCGUGGCAAAGUCGCUGUGGCUAGUCUGCC [G2A G7C G29C A41U] | 0.05
11 | GACAGAACUCAACACAGCGUGGCAAAGUGGCUAUGGCUAGACUGCC [G2A G7A G33A] | 0.4
12 | GACAUAGGUAAACACAGCGUGGAAAAGUGGCUGAAGCUAGACUGCC [G2A G5U C8G C10A C23A U34A G35A] | 0.06
13 | GACAGAACUCAACACAGCAUGGCAAAGUGGCUGUGGCUAGACUGAG [G2A G7A G19A C45A C46G] | 0.44
14 | GACAGACCUCAACACAGUGUAGCAAAGUGGCUGUGGCUAGACUGCC [G2A G7C C18U G21A] | 1.17
15 | GACAGAACUCAACACAGCGUGGCAAACUGGCUGUGGCUAGACUGCC [G2A G7A G27C] | 0.98
16 | GACAGAUCUCAACACAGUGUGGCAAAGUGGUUGUGGCUAGAGUGCC [G2A G7U C18U C31U C42G] | 0.1
17 | GACAUAGCUCAACACAGCGUUGCAAAGUGGCUGUGGCUAAAUUGCC [G2A G5U G21U G40A C42U] | 0.12
18 | GACAGAACUCGACACAGCGUGGCAAAGUGUCUGUGGCUGGACUGCC [G2A G7A A11G G30U A39G] | 0.03
19 | GACAGAAUACACCACAGCGUGGCAAAGUGGCUGUGGCUAAGUUGCC [G2A G7A C8U U9A A12C G40A A41G C42U] | 0.05

Row | Variant | self-cleavage
20 | GACAGAGCUCAACACAACGUGGCAAUGUGGCUGUGGCUAGACUUCC [G2A G17A A26U G44U] | 0.13
21 | GACAGAACUCAACACAGCGUGGUAAUGUGGCGGUGGCUAGACUGCC [G2A G7A C23U A26U U32G] | 1.19
22 | GACAGAUCUCAACACAGCGUUGCAAAGUGGCUGUGGCUAGACUGCC [G2A G7U G21U] | 0.22
23 | GACAGACCUCAACACAGCUUGGAAAAGUGGCUGUGGCUAGACUGCC [G2A G7C G19U C23A] | 0.07
24 | GACAGACCUCAACACAGCCUGGCAAAGUGGCUGUGACUAGACUGGC [G2A G7C G19C G36A C45G] | 0.23
25 | GACAGAACUCGACACACCGUGGCAAAGUGGCUGUGGCUAGACUGCC [G2A G7A A11G G17C] | 0.13
26 | GACAUACCUCAACACAGCGUGGCAAAGUGGCUGUGGCUAGACUGCA [G2A G5U G7C C46A] | 0.17
27 | GACAGAUCUCAACACCGCGUGGGAAAGAGGCUGUGGCUAGACUGCC [G2A G7U A16C C23G U28A] | 0.01
28 | GACAGAUGUCAACAGAGCGUGGCAAAGCGGAAGUGGCUAGACUGCC [G2A G7U C8G C15G U28C C31A U32A] | 0.08
29 | GACAGAACGCAACACAGCGUGGCAAAGUGGCUGUGGCCAGACUGCC [G2A G7A U9G U38C] | 0.11
30 | GACAGAACUCAACACAGCGUGGCAAAGCGGCUGUGGAUAGACUGCC [G2A G7A U28C C37A] | 0.19
31 | GACAGACCUCAACACAGCGUGGCAAAGUGGCUGUGGCUAGACUGCA [G2A G7C C46A] | 0.17
32 | GACAGAUCUCAACACCGCGUAGCAAAGUGGCUGUGGCUAGACUGUU [G2A G7U A16C G21A C45U C46U] | 0.1
33 | GACAUAGCUAAGCACAGCGUGGCAAAGUGGCUGUGGCUAGACUUCC [G2A G5U C10A A12G G44U] | 0.03
34 | GACAGACCUCAACACAGCGUGGCAAAGUGGCUGUGGCUCGACUGCC [G2A G7C A39C] | 0.54
35 | GACAUAGCUCAACACAGCAUGGGAAAGGCGGUGUGGCUAUACUGCC [G2A G5U G19A C23G U28G G29C C31G G40U] | 0.04
36 | GACACAGCUCAACACAUCGUGGCAAAGUGGCUGUGGCUAGGCUGCC [G2A G5C G17U A41G] | 0.05
37 | GACAGAAGUCAACACAGCAUGGCAAAGUGGCGGUGGCUAGACUGUC [G2A G7A C8G G19A U32G C45U] | 0.13
38 | GACAGAUAUCAACACAGCGCGGCAAAGUGGCUGUGGCUGGACUGCC [G2A G7U C8A U20C A39G] | 0.47

Row | Variant | self-cleavage
39 | GACAUAGCUCAACACAGCGUGGCAAAGUGGCUGUGGCUGGACUGCC [G2A G5U A39G] | 0.05
40 | GACAUAGCUCAAGACAGCGUGGCAAAGUGGCUGUGGCUAGACUGCC [G2A G5U C13G] | 0.19
41 | GACAGAUCCCAGCACAGCGUGGCAAAGUGGAUGUGGCGAGACUGCC [G2A G7U U9C A12G C31A U38G] | 0.02
42 | GACAUAGCUCAACACAGGGUGGCAAAGUGGCUGUGGCUAGACUGCC [G2A G5U C18G] | 0.13
43 | GACAUAGCUAAACGCAGCGUGGCAAAGUGGCUGUGGCUAGACUGCC [G2A G5U C10A A14G] | 0.03
44 | GACAGAUCUCAACACAGUCUGGAAAAGUGGAUGUGGCUAGACAGCC [G2A G7U C18U G19C C23A C31A U43A] | 0.2
45 | GACAGAUCUCAAUACAGCGUGGCAAAGUGGCUGUGUUUAGUCUGUC [G2A G7U C13U G36U C37U A41U C45U] | 0.06
46 | GACACAGCUCAAUACAGCGUGGCAAAGUGGCUGUGGCUAGACUGCC [G2A G5C C13U] | 0.04
47 | GACACAGCGCAACACAGCGUGGCAAAGUGGCUGUGGCUAGACUGCC [G2A G5C U9G] | 0.09
48 | GACAUAGCUCAACACAGCGUGGCAAAGUGGCUGUGGCCAGACUGCC [G2A G5U U38C] | 0.04
49 | GACAGAACUACACACAGCAUGGCAAAGUGGCUGCGGCUAGACAGCC [G2A G7A C10A A11C G19A U34C U43A] | 0.08
50 | GACAGAACUCAACACAGCGUGGCAUAGUGGCUGUGGCUAGACUGCC [G2A G7A A25U] | 0.26
51 | GACAUAGCUCAACACAGCGUGGCAAAUUGGCUGUGGCUAGACUGCC [G2A G5U G27U] | 0.06
52 | GACAGAUCUCAACAUAGCGUGGCAUAGUGGCUGUGGCUAGACUGUC [G2A G7U C15U A25U C45U] | 0.09
53 | GACAGAACUCAACAGAGCAUGGCAAAGUGACAGUGGCUAGACUGCC [G2A G7A C15G G19A G30A U32A] | 0.36
54 | GACAGAACUCAACACAGCGUAGCAAAGUGGUUGUGGCUAGACAGCC [G2A G7A G21A C31U U43A] | 0.36
55 | GACACAGUUCAACACAGCGUGGCAAAGCGGUUGUGGCUAGACUGCC [G2A G5C C8U U28C C31U] | 0.15
56 | GACAGAUGUCAACACAGCGUGGCAAAGUGGCUGUGACUAUACUGCA [G2A G7U C8G G36A G40U C46A] | 0.03
